Laboratory results from PubChem BioAssay AID1159614 (National Center for Advancing Translational Sciences (NCATS), 2016).
The whole screen tested about 45,000 compounds, of which about 65 (0.1%) were called active. Calls follow the shape of the dose curve; as a rule, active = well fitted activation curve with a large enough effect; inconclusive = small, poorly fitted or top-dose-only effect; inactive = no such curve, though single readings can be large or run the other way. Some of the results follow.

target: Galactocerebrosidase (Homo sapiens) (UniProt P54803); assay: A Novel Cell-Based Assay to Identify Small Molecules for B -Galactocerebrosidase; conditions: 145M-Twi-hGALC-G270D cells (Twitcher mouse brain line with human GALC G270D), HMU-beta-Gal fluorescence, 48 h; series mostly up to 57.5 µM; activation: at the top concentration; also: 0% is about no effect; nearly all actives have a fitted effect of over 65% in size
Outline: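 Fluorescence readout: HMU-β-gal cleavage by mutant GALC (0.1 mM final, citrate/phosphate pH 5.2 with 1 mg/mL taurocholate), stopped with carbonate/bicarbonate plus Triton X-100. Cells: murine Twitcher 145M-Twi expressing human G270D GALC; qHTS for activators.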

UniProt P54803, sequence (P54803 whole entry, looked up): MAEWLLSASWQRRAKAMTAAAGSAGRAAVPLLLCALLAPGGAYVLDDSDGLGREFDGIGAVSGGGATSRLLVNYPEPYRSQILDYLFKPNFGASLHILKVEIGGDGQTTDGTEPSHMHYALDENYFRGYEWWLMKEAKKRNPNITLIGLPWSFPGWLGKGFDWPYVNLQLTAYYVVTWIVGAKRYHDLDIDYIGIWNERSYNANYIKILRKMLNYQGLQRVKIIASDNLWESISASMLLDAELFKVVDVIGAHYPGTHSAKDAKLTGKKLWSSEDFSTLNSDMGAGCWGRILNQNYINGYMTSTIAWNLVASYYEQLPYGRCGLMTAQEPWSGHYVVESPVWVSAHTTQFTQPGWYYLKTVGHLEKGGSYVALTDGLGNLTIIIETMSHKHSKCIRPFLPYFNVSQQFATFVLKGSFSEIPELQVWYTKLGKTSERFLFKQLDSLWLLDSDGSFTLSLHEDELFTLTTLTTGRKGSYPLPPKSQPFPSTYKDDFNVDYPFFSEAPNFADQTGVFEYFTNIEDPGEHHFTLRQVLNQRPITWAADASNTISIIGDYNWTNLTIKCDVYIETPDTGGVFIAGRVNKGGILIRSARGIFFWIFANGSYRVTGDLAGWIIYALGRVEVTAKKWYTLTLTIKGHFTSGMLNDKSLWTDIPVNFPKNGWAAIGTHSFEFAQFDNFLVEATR

activation, inactive:
CC(C)CCNC(=O)Nc1ccc2c(c1)N(C)C(=O)c1ccccc1S2 -15.9%, Cc1ccc(-c2cc(C(=O)N3CCN(S(=O)(=O)c4ccc(Br)cc4)CC3)[nH]n2)cc1C 1.4%, CS(=O)(=O)N1CCc2cc(C(=O)NCCc3ccccc3)ccc21 -13%, CC1=C(c2ccc(C)c(C)c2)S(=O)(=O)N=C1N1CCC(C(=O)NCCc2ccco2)CC1 -0.938%, COc1ccc(-c2[nH]nc3nc(-c4cc(OC)c(OC)c(OC)c4)cc(C(=O)O)c23)cc1 -8.54%, COc1ccc(N2CCN(C(=O)CCc3c(C)nc4cc(-c5ccc(Cl)cc5)nn4c3C)CC2)cc1 -21.1%, Cc1nc2ccccc2c(=O)n1-c1ccc(NC(=O)c2ccc([N+](=O)[O-])cc2)cc1 -9.54%, CCOc1ccc(NCc2cccn2-c2nnc(N3CCC(C(=O)NCCc4ccc(OC)c(OC)c4)CC3)s2)cc1 -32.8%, CCC(=O)NCC(c1ccc2c(c1)OCO2)N1CCN(c2ccccc2)CC1 (configuration not stated) -4.28%, CCCCCC=CCC=CCCCCCCCC(=O)OCC -20%, Cc1ccc2[nH]c(CSc3nnc(NC(=O)c4ccccc4C)s3)cc(=O)c2c1 -11.7%, Cc1ccccc1CNC(=O)C(=O)NCC(c1ccco1)S(=O)(=O)c1ccccc1 (configuration not stated) -13.8%, COc1ccc(C(=O)Nc2nnc(S(=O)(=O)N(C)c3ccc(Cl)cc3)s2)cc1OC -25.2%, CCCS(=O)(=O)N1CCCC(C(=O)NCCCOC)C1 (configuration not stated) -10.2%, Cc1ccc(CCNC(=O)c2cn(C)c3ccc(S(=O)(=O)N4CCCCC4)cc3c2=O)cc1 -9.86%, COc1cc(-c2nc3ncccn3c2Nc2ccc(C)cc2C)ccc1O -2.03%, O=C(CSc1nc2ccccc2nc1Cc1ccccc1)N1CCCCC1 -10.3%, COc1cc(OC)cc(C(=O)Nc2ccc3c(c2)N(C2CCCC2)C(=O)c2ccccc2S3)c1 -5.38%, O=C(NCc1ccccc1Cl)c1cc2ccccc2o1 -12.8%, CCc1cccc(NC(=O)CCS(=O)(=O)c2cc(Br)cc3c2N(C(C)=O)CC3)c1 -8.83%, COc1cccc(Nc2c3c(nc4nncn24)CCC3)c1 -6.37%, CCOc1ccccc1NC(=O)Cn1cnc2sc(C)c(S(=O)(=O)N3CCC(C)CC3)c2c1=O -17.6%, Cc1cc(C)cc(-n2c(SCC(N)=O)nc3c(oc4ccccc43)c2=O)c1 -13.9%, CCCCOc1cccc(C(=O)Nc2ccc3oc(-c4cccnc4)nc3c2)c1 -5.93%, CCc1ccc(C2CC(=O)Nc3c2c(C)nn3-c2nc(C)cc(C)n2)cc1 (configuration not stated) -12.3%, CCOc1ccc(-c2nnc(SCC(=O)NCc3ccccc3)nc2-c2ccc(OCC)c(OC)c2)cc1OC 0.234%, CCOc1ccccc1NC(=O)N1CCN(Cc2nc3ccc(C)cc3o2)CC1 -6.52%, Cc1ccc(C)c(N2CCN(S(=O)(=O)c3c(C)nc4sccn4c3=O)CC2)c1 -7.96%, CCOC(=O)c1[nH]c(C)c(CCC(=O)NCc2ccccc2C)c1C -0.525%, CCn1cc(S(=O)(=O)c2ccc(C)cc2)c(=O)c2cc(F)c(N3CCCCCC3)cc21 -9.56%, Cn1nc(-c2ccccc2F)c2cc(C(=O)N3CCN(c4ccc(F)cc4)CC3)sc21 -8.84%, CCC(C)NC(=O)Cn1c(=O)n(Cc2ccc(C(=O)NCc3ccccc3OC)cc2)c(=O)c2ccccc21 (configuration not stated) -15.8%, Cc1nn(C(=O)c2cccc(F)c2)c(C)c1S(=O)(=O)N1CCCCCC1 -8.75%, Cc1ccc(NC(=O)CSc2ncnc3c2sc2ccccc23)cc1C -17.6%, CCCN1CCN(CCCNC(=O)Cn2c(-c3cccs3)cc3ccccc32)CC1 -4.93%, CCN(CC)c1nn2c(=O)c(C(=O)NCc3cccc(C)c3)cnc2s1 -0.902%, COc1ccc(Cn2c(SCc3ccc(C(=O)NCCc4ccccc4)cc3)nc3cccnc32)cc1 -19.3%, Cn1c(=O)n(C/C=C/c2ccccc2)c(=O)c2c1nc1n2CCN1c1ccc(Cl)cc1 -5.77%, Cc1cc(C)cc(NS(=O)(=O)c2ccc3[nH]cc(C(=O)N4CCCCCC4)c(=O)c3c2)c1 1.82%, COc1ccc(OC)c(Nc2ncnc3c2cnn3-c2ccc(C)cc2)c1 -8.65%, COc1ccc(-c2noc(CN3CCN(c4cccc(Cl)c4)CC3)n2)cc1 -9.47%, Cc1cccc(N2CCN(S(=O)(=O)c3ccc(F)c(C(=O)Nc4ccc(C(C)C)cc4)c3)CC2)c1C -8.37%, Cc1ccc(C)c(NC(=O)CSc2nc(=O)n(Cc3ccccn3)c3c2CCC3)c1 -12.8%, COCCn1c(C)cc(O)c(C(c2ccc(C)cc2)N2CCCCC2)c1=O (configuration not stated) -1.3%, CC(=O)N1c2ccccc2C(=O)C1N1CCN(c2cccc(C(F)(F)F)c2)CC1 (configuration not stated) -8.53%, CC(=O)N1CCc2cc(Br)cc(S(=O)(=O)N3CCN(c4cc(C)ccc4C)CC3)c21 -4.29%, CCOc1ccc(CC(=O)NC2CC(=O)N(c3ccc(C)c(C)c3)C2)cc1 (configuration not stated) -6.37%, COc1ccccc1N(CC(=O)Nc1ccc(C)c(Cl)c1)S(=O)(=O)c1ccc(C)cc1 -7.64%, C#CC(C)(CC)NC(=O)c1cc2c(n(-c3ccc(Cl)cc3)c1=O)CC(C)(C)CC2=O (configuration not stated) -0.094%, CCN(CC)c1ccc(NC(=O)c2cc(S(=O)(=O)N3CCc4ccccc43)cn2C)c(C)c1 -13.7%, CCN1CCN(c2c(S(=O)(=O)c3ccccc3)cnc3ccc(Cl)cc23)CC1 -13.7%, Cn1cc(-c2cc3n(n2)CCC(=O)N3CC(=O)O)c2ccccc21 -9.56%, OCc1nc2ccccc2n1Cc1c(F)cccc1Cl 1.82%, Cc1ccccc1OCC(=O)N(Cc1ccc(N(C)C)cc1)CC1CCCO1 (configuration not stated) 0.296%, Cc1cccc(CNC(=O)CCCN2C(=O)CCn3nc(-c4cn(C)c5ccccc45)cc32)c1 4.18%, Cc1ccccc1OCC(=O)Nc1ccc2nc(SCC(=O)N(C)c3ccccc3)sc2c1 -24.9%, CC(C)(C)OC(=O)N1CCC(c2c(C(=O)N3CCN(c4ccc(Cl)cc4)CC3)cnn2-c2ccc(F)cc2F)CC1 2.54%, COCCCn1c(=N)c(S(=O)(=O)c2ccccc2)cc2c(=O)n3cc(C)ccc3nc21 -17.4%, COc1cccc(NC(=O)C2CCCN(c3nnc(-n4c(C)ccc4C)s3)C2)c1 (configuration not stated) -13.8%, Cc1ccc(OCC(=O)OCc2cc(=O)n3nc(-c4cccs4)sc3n2)cc1 -15%, COc1ccccc1CNC(=O)CCCn1nc(C)c2sc3ccccc3c2c1=O -0.347%, O=C(c1cc(-c2ccc(Cl)cc2)on1)N(Cc1cccc(F)c1)Cc1ccco1 -15.2%, Cc1ccc(Cn2c(CNS(=O)(=O)c3ccc(C(C)(C)C)cc3)nc3cccnc32)cc1 -3.83%, Cn1c(=O)c2nc(SCC(=O)Nc3cc(Cl)cc(Cl)c3)n(C)c2n(C)c1=O -22.6%, Cc1nc2sccn2c(=O)c1S(=O)(=O)NCc1ccc(F)cc1 -8.09%, CCc1ccc(NC(=O)CSc2c(C)cnc3c2c(=O)n(C)c(=O)n3C)cc1 -7.54%, COc1cc(NC(=O)c2cc(-c3cccs3)on2)c(OC)cc1Cl -15.4%, COc1ccc(CNc2nc(-c3ccco3)nn2C(=O)c2ccccc2Cl)cc1 -13.3%, COc1ccc(Cl)cc1NC(=O)c1cc2ccc3ccc(C)[nH]c3c2n1 -23.5%, Cn1cc(S(=O)(=O)c2ccc(Cl)cc2)c(=O)c2cc(F)c(N3CCCC3)cc21 -11.2%, COc1ccc(NC(=O)C(=O)NCCc2ccc(OC)c(OC)c2)c(OC)c1 -10.4%, O=C(COc1ccccc1Cl)OCc1cc(=O)n2nc(C3CC3)sc2n1 -6.68%, COc1ccccc1CNc1nc2ccccc2c2nc(-c3cccnc3)nn12 -16.1%, COc1ccc(CNC(=O)C2CCN(C(=O)c3ccc(-n4ccc5ccccc54)s3)CC2)cc1 -8.65%, COc1ccc(-c2cc3nc(-c4ccc(Br)cc4)cc(C(F)(F)F)n3n2)cc1 -13.1%, COC(=O)c1ccc(NC(=O)CSc2cn(CC(=O)N3CCCCCC3)c3ccccc23)cc1 -8.39%, COc1ccc(CCNC(=O)c2cccc(-n3c(C)nc4cccnc43)c2)cc1OC -16%, COCCCNC(=O)c1cnn(-c2ccccc2Cl)c1C1CCN(C(=O)OC(C)(C)C)CC1 2.71%, CCOCN(C(=O)CSc1nc2ccccc2[nH]1)c1c(C)cccc1CC 10.7%, CCOC(=O)c1c(C)oc2nc(C)nc(NCc3cccc(OC)c3)c12 -16.5%, O=C(c1ccccc1)c1ccc2nc(Nc3ccccc3Cl)c3nncn3c2c1 -10.5%, CCCCN(CC)C(=O)Cn1nc(C)c2c(C)n(-c3ccccc3)nc2c1=O -5.72%, COc1ccccc1NC(=O)CCNS(=O)(=O)c1ccc2c(c1)CCCC(=O)N2 -18.6%, CCn1c(=O)cc(SCC(=O)N2CCN(c3cc(C)ccc3C)CC2)c2ccccc21 -4.26%, C[C@H](CS)C(=O)N1CCC[C@H]1C(=O)O -14.2%, CCOC(=O)c1cc(OC(=O)c2ccc(OC)c(OC)c2)n(-c2ccccc2)n1 -14.5%, Cc1cccc(Cn2c(SCc3ccc(C(=O)NC4CCCCC4)cc3)nc3cccnc32)c1 -15%, Cc1ccc(N2CC(C(=O)Nc3ccc(Cl)cc3Cl)CC2=O)cc1 (configuration not stated) -10.8%, COc1ccccc1CNC(=O)CCCn1c(=O)c2ccccc2n(Cc2ccccc2F)c1=O 6%, COc1ccc(C(=O)Nc2nnc(S(=O)(=O)N3CCOCC3)s2)cc1 -16.7%, CCc1ccc(-c2csc(-c3cc4cc(Br)ccc4oc3=O)n2)cc1 9.37%, Cc1nn(C(C)C(=O)NCc2cccc(F)c2)c(=O)c2c1sc1ccccc12 (configuration not stated) -5.72%, O=C(CSc1nnc(-c2ccccc2)o1)N1CCCc2ccccc21 -12.1%, CN(Cc1cc(Br)cc(Br)c1N)C1CCCCC1 -14.8%, COc1ccc(C)cc1NC(=O)C(NS(=O)(=O)c1cccc2nsnc12)c1ccccc1 (configuration not stated) -13%, Cc1ccc(C)c(N2CCN(C(=O)Cn3nc(Cc4cccnc4)c4ccccc4c3=O)CC2)c1 -27.7%, CCOC(=O)N1CCc2c(sc3c2c(=O)n(-c2ccc(Cl)cc2)c(=O)n3CC(=O)Nc2ccccc2)C1 -13.3%
